The supplement of paper PMC11417369
The list shows a part of the results.

Each sequence was assayed on PfSIP2 AP2 domain 1 (GST-tagged) (assay: gcPBM binding intensity (ln(normalized median fluorescence intensity)); higher = stronger DNA binding).
Procedure, shortened: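 GST-tagged P. falciparum DNA-binding domains, expressed in E. coli (about 25 μg on average), were applied for 1 h to an Agilent 4 × 180k array of primer-extended double-stranded 36-bp intergenic genomic probes plus negative controls. The binding buffer was 1× PBS with 1% milk, 0.2 mg/ml BSA, 0.5% salmon testes DNA and 0.03% Triton X-100. Bound protein was detected with Alexa488 anti-GST antibody and scanned at 488 nm. Binding intensity is the highest Masliner-normalised natural-log median intensity across replicate spots of either probe orientation.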

Sequence | gcPBM binding intensity (ln)
AAATAATTAGCTATTTGTACATATATACATATTTAT [XGTACX_site4652] | 6.99
TTAATAACAAAATAAACACACATATATAAATCCACA [CACACA_site1590] | 6.97
TGTGTTAAATGTAATAGTGAATAAATAATTTTAACA [TGCATGCA_negctrl_site161] | 6.81
AAAATGAATATAATGACGCACACTTAAAATTGTTAA [CACACA_site2509] | 6.91
TTTTTTAGAAAAAGTTGTACTTTTTTTTTTTTTTTT [XGTACX_site535] | 7.63
AAAAAAAACAGACACACACACAAATATATAAAAATA [CACACA_site1172] | 6.94
TTTTTGAAATAATGAAACAGCAAAAAAACAAAAATA [CACACA_negctrl_site221] | 7.2
TATTAAAAGAAAATAACACACACAAAAAAAAAAAAA [CACACA_site8661] | 6.72
AAAATAAGCGTGAAACGTACATATTACATTATTATA [XGTACX_site8914] | 6.86
ATAATATATATATAGTGTACATTTGAATATATTTGA [XGTACX_site583] | 7.24
TTTTAAAATATCAACACACTCATTATTTTCTATATT [CACACA_site4740] | 6.81
AAAATAAAAACAAAATCACACATTCCAGTTTTTTTT [CACACA_site5356] | 6.76
TCATTCTATCTGTTCACACATACACAAAAAAAAAAA [CACACA_site5141] | 7.53
TATATACATGTGAGAGTGCATATAGACATAAAAAAT | 8.96
AAGGTCATTTTATATTGTACATGAAATTGTTATGTA [XGTACX_site187] | 7.06
TCAATTTGGAACGGTATGCACTAATTTTATATTTTT | 8.19
ATATATTTTGTATGTAGTACAATTTTATAATCATAT [XGTACX_site8373] | 7.07
AATAATGAATACACATGTACAAAAATTTTTCTTACT [XGTACX_site1962] | 7
TATTACAAATATGGCACACATATATATATATATATT [CACACA_site3268] | 7.32

Sequence | gcPBM binding intensity (ln)
ATATACAGATAAATGTGTACTTAAATCTATTATATT [XGTACX_site2632] | 6.92
CAAATATCTATTTAGTGTACTAATATATTCAATAAT [XGTACX_site2345] | 7.11
TATATAAAACCTTATTGTACTATTAGACTATGCTTA [XGTACX_site6026] | 6.77
ACAAAGACAATTTTGTTATATATAAAAAAAAAAAAT [CACACA_negctrl_site253] | 6.98
ATTAATTTTCCATTCACACATATATATATATATATA [CACACA_site6065] | 9.34
ATAGCATATATTTTTTGTACATATGTTATATATATA [XGTACX_site2184] | 8.25
TACAAATATATATGCACACACATATCTGTATATGTG [CACACA_site5663] | 7.66
ATGTAGATATATATCTGTACGTATATGTAAATATTA [XGTACX_site1516] | 7.14
AATTCTTTTTATATATTAAATATTATTAATAAGTCA [CACACA_negctrl_site1488] | 6.84
ACACATTATAACAAGGTGCAATTTTTATACACATGT [GTGCAC_site9866] | 10.4
GAAAAAAAAAAAAATACACACAAATTGGTATATAAC [CACACA_site6315] | 6.75
GCTATAATAAAATTTAAACACACGTAATATAATATA [CACACA_site2592] | 7.06
AAAATTTCATAAAGACGTACTATAAAAATAAAATTA [XGTACX_site4182] | 7.2
AAAAATTCTTGGCGCACACACTTTAAAAGTTAAAAA [CACACA_site6430] | 7.3
GTATATTTCTTTAAATGTACACATTTTTTTAAAGAG [XGTACX_site1225] | 7.23
AATTGTATAAATGGAATAATGACTATGATTATACAT [GTGCAC_negctrl_site188] | 6.96
TATAAAAAATATCCTTTTTTTATACATCAATATATA [TGCATGCA_negctrl_site291] | 6.76
CACTAATAGTGGATTACACACATATAGATGTATATA [CACACA_site7234] | 6.99
ATTTATAATCTGTATAGTACACATATATACATGGTT [XGTACX_site2714] | 7.08

Sequence | gcPBM binding intensity (ln)
CTAAAACAATAAATCACACATACATAGGATAATATA [CACACA_site4247] | 6.86
TCTTAAATATACAGTTGTACTAAACAAAAAAAAAAA [XGTACX_site2639] | 7.2
TATAAAAAATGATAAAGTACTTTATACACACAAATA [XGTACX_site8486] | 7.37
AAAATATACACACATATGTATATAATATTATATGTA [GTGCAC_negctrl_site496] | 6.93
CTTTCGGTTGGAGAGGTGCGCTTCTCCTTTATAATA | 11
TGATAGCTAGCTATATGTACATATATATATATATAT [XGTACX_site393] | 9.49
TACACAAAATTTAAATGTACATTAAATATATGATGT [XGTACX_site2140] | 7.04
AAACATCATAAATATACACACATATATATATATATA [CACACA_site620] | 9.54
ATTTATCTATAATATACACACATATAACAGACATAT [CACACA_site6469] | 6.99
AAAACGTATCACAAAAGTACAGATAGTTATAATATA [XGTACX_site185] | 6.97
CGAAACCATATGTACACACACATATATAAATATGTA [CACACA_site7082] | 7.1
TTTATATTTCTCTTTAGTACATATTATATTCTTTTA [XGTACX_site1618] | 7.03
AATGAAAATAAATTAACACACAATTTTAATATTGTT [CACACA_site1306] | 6.67
GTATACTTAACATTCACACATATATATATATATAAA [CACACA_site4596] | 7.37
AATTATTTACCTTCTTTGAAAGAACAAATGATACAA [CACACA_negctrl_site1315] | 6.88
ATATATATATATATATGTACTTATAATTCTTCAATT [XGTACX_site5627] | 9.01
ATATATCAACTCATATTATTTTCTTTTATTATTTAT [CACACA_negctrl_site276] | 6.9
TGTTATTAAAACGTGACACACAATATATATATATAT [CACACA_site3539] | 9.12
TTTTTTTTTTTTTTTTGTACACATAGTAAAAATTAA [XGTACX_site2410] | 7.12
